# Assay results from PubChem BioAssay AID504333 (National Center for Advancing Translational Sciences (NCATS), 2011).
# In all, about 360,000 compounds went through this assay and about 16,000 (4.4%) were called active. This list was built around the results that the source calls inconclusive (neither active nor inactive); the mix of calls is not that of the screen. Calls come from the whole dose curve; as a rule, active = well fitted inhibition curve with a large enough effect; inconclusive = small, poorly fitted or top-dose-only effect; inactive = no such curve, though single readings can be large or run the other way. Where the call is inconclusive, the potency comes from a doubtful curve fit.
# Biological target: Bromodomain adjacent to zinc finger domain protein 2B (Homo sapiens) (UniProt Q9UIF8)
# Sequence of UniProt Q9UIF8 (Q9UIF8 whole entry, looked up, the tested form may be a part): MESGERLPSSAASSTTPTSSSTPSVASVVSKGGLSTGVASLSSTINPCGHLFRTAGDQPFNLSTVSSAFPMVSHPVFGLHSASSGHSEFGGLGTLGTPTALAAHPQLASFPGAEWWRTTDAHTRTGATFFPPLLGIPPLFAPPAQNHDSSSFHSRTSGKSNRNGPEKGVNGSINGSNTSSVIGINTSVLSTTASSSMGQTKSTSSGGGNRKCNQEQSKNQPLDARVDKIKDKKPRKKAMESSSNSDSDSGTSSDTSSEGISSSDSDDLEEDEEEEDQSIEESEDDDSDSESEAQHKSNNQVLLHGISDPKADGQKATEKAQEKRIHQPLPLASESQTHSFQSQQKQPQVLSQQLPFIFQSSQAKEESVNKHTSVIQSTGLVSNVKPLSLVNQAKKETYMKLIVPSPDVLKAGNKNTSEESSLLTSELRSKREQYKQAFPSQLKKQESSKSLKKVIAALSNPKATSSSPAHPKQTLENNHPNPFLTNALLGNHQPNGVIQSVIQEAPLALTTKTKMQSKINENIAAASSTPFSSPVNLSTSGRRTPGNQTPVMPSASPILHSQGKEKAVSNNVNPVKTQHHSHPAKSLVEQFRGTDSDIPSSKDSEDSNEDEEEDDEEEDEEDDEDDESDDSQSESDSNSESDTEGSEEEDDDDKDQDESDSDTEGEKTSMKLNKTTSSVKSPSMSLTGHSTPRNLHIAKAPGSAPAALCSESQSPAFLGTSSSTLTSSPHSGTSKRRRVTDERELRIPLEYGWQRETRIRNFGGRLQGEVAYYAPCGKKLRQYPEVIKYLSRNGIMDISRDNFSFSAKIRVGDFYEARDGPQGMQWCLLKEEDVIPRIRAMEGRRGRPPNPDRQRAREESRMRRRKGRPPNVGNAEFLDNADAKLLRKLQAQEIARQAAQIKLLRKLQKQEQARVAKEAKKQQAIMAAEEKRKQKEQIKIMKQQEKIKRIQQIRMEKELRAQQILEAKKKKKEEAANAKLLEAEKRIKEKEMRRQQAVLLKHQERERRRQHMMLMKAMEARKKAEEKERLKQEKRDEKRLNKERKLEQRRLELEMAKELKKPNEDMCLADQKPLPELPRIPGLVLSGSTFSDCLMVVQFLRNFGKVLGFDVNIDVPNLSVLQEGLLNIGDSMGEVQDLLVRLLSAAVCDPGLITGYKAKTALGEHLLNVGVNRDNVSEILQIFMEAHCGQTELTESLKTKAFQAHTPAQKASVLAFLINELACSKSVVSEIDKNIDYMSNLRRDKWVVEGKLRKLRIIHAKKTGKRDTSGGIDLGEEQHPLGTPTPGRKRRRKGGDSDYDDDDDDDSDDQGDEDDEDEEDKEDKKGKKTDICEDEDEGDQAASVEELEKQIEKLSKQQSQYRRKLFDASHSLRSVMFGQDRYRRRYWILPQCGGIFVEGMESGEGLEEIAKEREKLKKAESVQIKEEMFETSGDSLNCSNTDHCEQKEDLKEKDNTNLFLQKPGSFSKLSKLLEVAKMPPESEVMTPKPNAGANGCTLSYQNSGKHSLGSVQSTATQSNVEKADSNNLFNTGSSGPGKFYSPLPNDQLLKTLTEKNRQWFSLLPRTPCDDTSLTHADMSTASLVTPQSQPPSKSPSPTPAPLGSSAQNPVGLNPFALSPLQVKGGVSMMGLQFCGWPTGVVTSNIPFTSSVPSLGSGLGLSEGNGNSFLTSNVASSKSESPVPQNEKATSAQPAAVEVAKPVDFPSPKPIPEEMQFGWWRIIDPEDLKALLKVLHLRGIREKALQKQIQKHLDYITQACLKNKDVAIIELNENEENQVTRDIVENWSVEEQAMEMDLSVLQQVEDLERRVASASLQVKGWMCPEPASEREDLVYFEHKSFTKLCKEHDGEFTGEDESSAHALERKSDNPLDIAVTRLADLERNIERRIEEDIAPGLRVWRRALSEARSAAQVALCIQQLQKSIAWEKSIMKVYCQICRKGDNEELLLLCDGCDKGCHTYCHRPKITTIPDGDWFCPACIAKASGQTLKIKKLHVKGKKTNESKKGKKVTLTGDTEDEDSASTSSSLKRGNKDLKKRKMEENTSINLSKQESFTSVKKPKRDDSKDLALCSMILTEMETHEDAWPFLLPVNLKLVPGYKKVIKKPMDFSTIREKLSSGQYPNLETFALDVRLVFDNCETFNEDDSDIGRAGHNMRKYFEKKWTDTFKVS
# Test: qHTS Assay for Inhibitors of BAZ2B; note: nearly all actives have a fitted effect of over 60% in size
# Details: AlphaScreen BAZ2B-H3K14Ac peptide displacement; activity change, negative = inhibition: at 114 µM (top of the series)
# Summary of the method: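 Protein-peptide AlphaScreen: BAZ2B 50 nM, b-H3K14Ac 50 nM, 1x PBS pH 7.4 + 0.01% Tween-20. Preincubation 30 min RT; cpd 30 min RT (top 110 uM); beads 20 min RT, light-protected.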
# % is set by controls: 0 for no effect and ±100 for the full control effect; potency is the fitted concentration of half-maximal effect; tags give direction and shape of the fitted curve.
Structure (SMILES),"activity change, negative = inhibition",Potency
Cc1cccc(NC(=S)N2CCN(c3ccc(F)cc3)CC2)c1,inactive: -19%,
COc1ccc(S(=O)(=O)NC2CCc3ccccc32)cc1OC (stereo not drawn),inactive: 5.44%,
CCOC(=O)C1=C(CNCc2ccccc2Cl)NC(=O)NC1c1cccc([N+](=O)[O-])c1 (stereo not drawn),,"inconclusive: 35.5 µM [inhibitor, full curve]"
Cc1ccc2c(c1)c1c(n2CC(O)CNC(CO)(CO)CO)CCCC1 (stereo not drawn),,"inconclusive: 50.1 µM [inhibitor, partial curve]"
Cc1ccc(CSCC(=O)Nc2cc(S(=O)(=O)N3CCOCC3)ccc2OC(C)C)cc1,,"inconclusive: 79.4 µM [inhibitor, single point]"
O=C1CN(C(=O)c2ccccc2[N+](=O)[O-])C(c2ccccc2)c2cc(Br)ccc2N1 (stereo not drawn),,"inconclusive: 70.8 µM [inhibitor, single point]"
S=C(c1cn(CCOc2ccccc2)c2ccccc12)N1CCCC1,inactive: -34.7%,
CCOC(=O)Cc1nn2c(=O)cc(C)nc2s1,,active: 79.4 µM
CCc1ccc(Nc2nc3ccccc3c(=O)s2)cc1,inactive: -1.99%,
O=C(NNc1ccccc1[N+](=O)[O-])Nc1cccc(Cl)c1,,active: 89.1 µM
NC(=O)COC(=O)c1cc(-c2ccco2)nc2ccccc12,inactive: -24%,
NC(=O)CC(NC(=O)c1ccc(Br)cc1)c1ccc(N2CCC(Cc3ccccc3)CC2)c([N+](=O)[O-])c1 (stereo not drawn),,"inconclusive: 50.1 µM [inhibitor, partial curve]"
Cc1[nH]c2ccccc2c1C1=NNC(=Nc2ccc(F)cc2)SC1,,"inconclusive: 44.7 µM [inhibitor, partial curve]"
CCCOc1ccc(/C=N/Nc2ccccc2[N+](=O)[O-])c(OCCC)c1,,active: 2.51 µM
COC(=O)C1=C(C(=O)OC)[C@@H]2N(C)c3ccc(OC)cc3[C@@]23C[C@@H](C(=O)OC)N(C(=O)C2CCC2)C3=N1,,active: 11.2 µM
O=C(NCCc1c[nH]c2ccccc12)/C(=C\c1cccnc1)NC(=O)c1ccccc1Br,,"inconclusive: 79.4 µM [inhibitor, single point]"
CCOC(=O)CN1C(=O)S/C(=C/c2ccco2)C1=O,,"inconclusive: 22.4 µM [inhibitor, single point]"
COc1cc(C(=O)Oc2cc(C)cc(C)c2)cc(OC)c1OC,inactive: -5.11%,
COCCCNC(=O)CSC1=Nc2ccccc2C2=NC(CCC(=O)NCc3ccc(OC)cc3)C(=O)N12 (stereo not drawn),inactive: -3.28%,
CCOc1ccc(N2C(=O)CC(Sc3ccccc3C(=O)O)C2=O)c([N+](=O)[O-])c1 (stereo not drawn),,active: 63.1 µM
COc1ccc(NC(=S)NCCC(c2ccccc2)c2ccccc2)c(OC)c1,,"inconclusive: 35.5 µM [inhibitor, full curve]"
Cc1cc(/C=N/NC(=O)C(O)(c2ccccc2)c2ccccc2)c(C)n1-c1cccc(C(=O)O)c1,,active: 56.2 µM
COc1ccc(CCNc2oc(COc3ccccc3F)nc2C#N)cc1,,"inconclusive: 39.8 µM [inhibitor, full curve]"
Oc1ccc[n+](/C=C\c2ccccc2)c1,inactive: -17.1%,
c1cc(N2CCCC2)ccc1C(c1nnnn1C1CCCCC1)N1CCOCC1 (stereo not drawn),,"inconclusive: 3.55 µM [inhibitor, full curve]"

Structure (SMILES),"activity change, negative = inhibition",Potency
C[n+]1ccccc1/C=C/c1ccc(F)c(F)c1,,"inconclusive: 89.1 µM [inhibitor, single point]"
CCN(CC)CCNCc1cc(Br)ccc1OCC(=O)NCc1ccccc1,,"inconclusive: 79.4 µM [inhibitor, partial curve]"
O=C(NCc1cccs1)C(=O)NCC(c1ccco1)N1CCN(c2ccc(F)cc2)CC1 (stereo not drawn),,"inconclusive: 70.8 µM [inhibitor, single point]"
Cc1ccc(Cl)cc1N1CCN(C(=O)c2cc3c(=O)oc4ccccc4c3s2)CC1,inactive: 1.99%,
Cc1nnc(NC(=O)c2ccc(S(=O)(=O)N(C)Cc3ccccc3)cc2)o1,,active: 79.4 µM
CCN1CCN(C(c2ccccc2Cl)c2c(O)cc(C)n(CCOC)c2=O)CC1 (stereo not drawn),inactive: 3.53%,
CCOc1ccccc1NC(=S)Nn1cnnc1,,"inconclusive: 56.2 µM [inhibitor, partial curve, poor fit]"
N#Cc1ccc(CSc2nnc(Nc3ccccc3)s2)cc1,inactive: 4.28%,
COC(=O)c1sc2nc(C)nc(SCC(=O)C(C)(C)C)c2c1C,inactive: 1.43%,
O=c1nc2s/c(=C\c3ccc(-c4ccccc4[N+](=O)[O-])o3)c(=O)n2nc1-c1ccccc1,,active: 10 µM
O=c1[nH]cnc2c1c(-c1ccccc1)cn2-c1ccc(F)cc1,,"inconclusive: 70.8 µM [inhibitor, single point]"
CCOc1ccc(N(CC(=O)NCc2ccc(F)cc2)C(=O)c2ccco2)cc1,,"inconclusive: 89.1 µM [inhibitor, single point]"
Cc1cc(NC(=O)c2cccs2)n(-c2ccccc2)n1,,"inconclusive: 7.08 µM [inhibitor, single point]"
COc1ccc(NC(=O)Cc2coc3ccc4ccccc4c23)cc1S(=O)(=O)N1CCOCC1,,"inconclusive: 35.5 µM [inhibitor, full curve, poor fit]"
COc1ccc(C(c2c(NC(=O)c3ccco3)sc(C)c2C)N2CCOCC2)cc1OC (stereo not drawn),,"inconclusive: 44.7 µM [inhibitor, partial curve]"
O=C(Nc1ccccc1)c1ccc(CSc2ncccn2)cc1,,active: 44.7 µM
Cc1cc(S(=O)(=O)N2CCOCC2)ccc1OCC(=O)NCCCn1ccnc1,,"inconclusive: 89.1 µM [inhibitor, single point]"
COc1ccc(-c2cc(C(=O)N(C)CCc3ccc(OC)c(OC)c3)c3ccccc3n2)cc1,inactive: -9.66%,
Cc1cc(Cl)c(OCCCN2CCCCC2)c(Br)c1,,active: 50.1 µM
COc1ccc(S(=O)(=O)N2CCCCC2)cc1NC(=O)Cc1cccs1,inactive: 8.28%,
O=C(Cc1ccccc1)NC(=S)Nc1ccc(N2CCCCC2)cc1,,active: 12.6 µM
CCOC(=O)C1(Cc2ccccc2Cl)CCN(C(=O)c2cc(C)on2)CC1,,"inconclusive: 89.1 µM [inhibitor, single point]"
C=CCOc1c(Br)cc(CNc2ccc(NC(=O)C(C)C)c(OC)c2)cc1OC,,"inconclusive: 50.1 µM [inhibitor, partial curve]"
CCN1C(=NCCc2c[nH]c3ccccc23)N[C@@H](c2ccccc2)[C@H](C(=O)OC)[C@H]1C,,"inconclusive: 89.1 µM [inhibitor, single point]"
COc1ccc(-c2nn3c(-c4ccccc4)nnc3s2)cc1,,"inconclusive: 79.4 µM [inhibitor, partial curve]"

Structure (SMILES),"activity change, negative = inhibition",Potency
O=C(/C=C/c1ccco1)NCc1ccc2c(c1)OCO2,inactive: -13.1%,
Cc1ccc(C(=O)N/C(=C\c2ccc(Cl)cc2)C(=O)NC2CCCCC2)cc1,inactive: 4.67%,
Cc1ccc(C)c(N2CCN(CCCNC(=O)c3ccc4nc(CCc5ccccc5)oc4c3)CC2)c1,,"inconclusive: 14.1 µM [inhibitor, full curve, poor fit]"
COc1cc(OC)c2ccc(=O)oc2c1C(CCN1CCCC(C)C1)c1ccc(N(C)C)cc1 (stereo not drawn),,"inconclusive: 50.1 µM [inhibitor, partial curve]"
Cc1ccc(NC(=O)c2cnc3sc(N4CCOCC4)nn3c2=O)cc1N(C)C,inactive: -17.4%,
Cc1cccc(NC(=O)Cn2c(=O)n(CCCCCC(=O)NCc3ccc4c(c3)OCO4)c(=O)c3sccc32)c1,inactive: -0.218%,
Cc1c(N=Nc2ccc(O)cc2)c(=O)n(-c2ccccc2)n1C,,"inconclusive: 89.1 µM [inhibitor, single point]"
C/C(=N/Nc1nc(-c2ccccc2)cc(-c2ccc(F)cc2)n1)c1cccc(N)c1,,"inconclusive: 39.8 µM [inhibitor, partial curve]"
N#CC1=C(N)NC(SCc2ccc(F)cc2)=C(C#N)C12CCCCC2,,"inconclusive: 39.8 µM [inhibitor, partial curve]"
CCc1cc(-c2[nH]ncc2-c2ccc(OC)cc2)c(O)cc1O,,"inconclusive: 44.7 µM [inhibitor, partial curve]"
N#Cc1nc(COc2ccc(Cl)cc2)oc1NCc1ccc2c(c1)OCO2,,"inconclusive: 0.708 µM [inhibitor, partial curve, poor fit]"
COc1ccc(N=N/C(=C\O)C(=O)c2cccs2)cc1,,active: 11.2 µM
Oc1c(C(c2ccco2)N2CCN(C(c3ccccc3)c3ccccc3)CC2)sc2ncnn12 (stereo not drawn),,"inconclusive: 44.7 µM [inhibitor, partial curve]"
Fc1ccc(CN2CCCCCCC2)c(F)c1,,active: 50.1 µM
O=C(CSc1nnc(-c2ccco2)o1)c1ccc[nH]1,,active: 44.7 µM
Cc1cccc(OCC(=O)N(Cc2ccc(N(C)C)cc2)C2CCS(=O)(=O)C2)c1 (stereo not drawn),,"inconclusive: 50.1 µM [inhibitor, partial curve]"
O=C(Nc1ccccc1)Nc1ccc2nnsc2c1,inactive: 4.98%,
COc1ccc(C2(CNC(=O)/C=C/c3ccco3)CCCC2)cc1OC,,"inconclusive: 89.1 µM [inhibitor, single point]"
CC(C)Sc1nnc(CNC(=O)C23CC4CC(CC(C4)C2)C3)n1C1CCCCC1,inactive: 7.72%,
CC1=CC(C)(C)N2C(=O)C3(NCCc4c3[nH]c3ccccc43)c3cc(C)cc1c32 (stereo not drawn),,active: 56.2 µM
Cc1ccc(-n2nc(C)c(C(=O)O)c2-n2cccc2)cc1,,active: 50.1 µM
Cc1ccc(NS(=O)(=O)c2ccc(C(=O)N3CC(C)OC(C)C3)cc2)cc1 (stereo not drawn),,"inconclusive: 56.2 µM [inhibitor, partial curve]"
FC(F)(F)c1ccc(/C=N/N2CCN(Cc3ccccc3)CC2)cc1,,"inconclusive: 44.7 µM [inhibitor, partial curve]"
